This is one part of the list.
Tests used:
Test in all cases: glycan array binding signal (z-score within array); higher = stronger binding
Settings in all cases: glycan notation: IUPAC condensed, linker removed
[1] = biological target: GlcNAc(b1-3)Gal(b1-4)GlcNAc(b1-3)Gal(b1-4)GlcNAc(b1-3)GalNAc
Summary of the method: (§1)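 Negative Z-scores can be read as non-binding. The Z-score is calculated within each array and then averaged across arrays of one protein sequence at different concentrations or buffers and across linkers. Arrays, 3228 in all, were curated from the Consortium for Functional Glycomics database and kept only where the protein sequence was available.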

[2] = biological target: GlcNAc(b1-3)Gal(b1-4)GlcNAc(b1-3)GalNAc
Summary of the method: as §1

[3] = biological target: GlcNAc(b1-3)Gal(b1-4)GlcNAc(b1-3)[GlcNAc(b1-3)Gal(b1-4)GlcNAc(b1-3)]GalNAc
Summary of the method: as §1

[4] = biological target: GlcNAc(b1-3)Gal(b1-4)GlcNAc(b1-6)[Gal(b1-3)]GalNAc
Summary of the method: as §1

[5] = biological target: GlcNAc(b1-3)Gal(b1-4)GlcNAc(b1-6)[GlcNAc(b1-3)Gal(b1-3)]GalNAc
Summary of the method: as §1

[6] = biological target: GlcNAc(b1-3)Gal(b1-4)GlcNAc(b1-6)[GlcNAc(b1-3)]Gal(b1-4)GlcNAc
Summary of the method: as §1

GlcNAc(b1-3)GalNAc = biological target: GlcNAc(b1-3)GalNAc
Summary of the method: as §1

GlcNAc(b1-3)Man = biological target: GlcNAc(b1-3)Man
Summary of the method: as §1

[7] = biological target: GlcNAc(b1-3)[GlcNAc(b1-4)][GlcNAc(b1-6)]GlcNAc
Summary of the method: as §1

[8] = biological target: GlcNAc(b1-3)[GlcNAc(b1-6)]Gal(b1-4)GlcNAc
Summary of the method: as §1

[9] = biological target: GlcNAc(b1-3)[GlcNAc(b1-6)]GalNAc
Summary of the method: as §1

[10] = biological target: GlcNAc(b1-4)Gal(b1-4)GlcNAc
Summary of the method: as §1

GlcNAc(b1-4)GlcNAc = biological target: GlcNAc(b1-4)GlcNAc
Summary of the method: as §1

[11] = biological target: GlcNAc(b1-4)GlcNAc(b1-4)GlcNAc
Summary of the method: as §1

[12] = biological target: GlcNAc(b1-4)GlcNAc(b1-4)GlcNAc(b1-4)GlcNAc(b1-4)GlcNAc
Summary of the method: as §1

[13] = biological target: GlcNAc(b1-4)GlcNAc(b1-4)GlcNAc(b1-4)GlcNAc(b1-4)GlcNAc(b1-4)GlcNAc
Summary of the method: as §1

[14] = biological target: GlcNAc(b1-4)[GlcNAc(b1-6)]GalNAc
Summary of the method: as §1

[15] = biological target: GlcNAc(b1-6)Gal(b1-4)GlcNAc
Summary of the method: as §1

GlcNAc(b1-6)GalNAc = biological target: GlcNAc(b1-6)GalNAc
Summary of the method: as §1

[16] = biological target: GlcNAc6S(b1-3)Gal(b1-4)GlcNAc
Summary of the method: as §1

Kdn(a2-3)Gal(b1-3)GalNAc = biological target: Kdn(a2-3)Gal(b1-3)GalNAc
Summary of the method: as §1

Kdn(a2-3)Gal(b1-3)GlcNAc = biological target: Kdn(a2-3)Gal(b1-3)GlcNAc
Summary of the method: as §1

Kdn(a2-3)Gal(b1-4)Glc = biological target: Kdn(a2-3)Gal(b1-4)Glc
Summary of the method: as §1

Kdn(a2-3)Gal(b1-4)GlcNAc = biological target: Kdn(a2-3)Gal(b1-4)GlcNAc
Summary of the method: as §1

[17] = biological target: Kdn(a2-3)Gal(b1-4)[Fuc(a1-3)]GlcNAc
Summary of the method: as §1

Kdn(a2-6)Gal(b1-4)GlcNAc = biological target: Kdn(a2-6)Gal(b1-4)GlcNAc
Summary of the method: as §1

[18] = biological target: Man(a1-2)Man(a1-2)Man(a1-3)Man
Summary of the method: as §1

[19] = biological target: Man(a1-2)Man(a1-2)Man(a1-6)[Man(a1-3)]Man
Summary of the method: as §1

Man(a1-2)Man(a1-3)Man = biological target: Man(a1-2)Man(a1-3)Man
Summary of the method: as §1

[20] = biological target: Man(a1-2)Man(a1-3)[Man(a1-2)Man(a1-6)]Man
Summary of the method: as §1

[21] = biological target: Man(a1-2)Man(a1-3)[Man(a1-2)Man(a1-6)]Man(a1-6)[Man(a1-2)Man(a1-2)Man(a1-3)]Man
Summary of the method: as §1

[22] = biological target: Man(a1-2)Man(a1-3)[Man(a1-2)Man(a1-6)]Man(a1-6)[Man(a1-2)Man(a1-2)Man(a1-3)]Man(b1-4)GlcNAc(b1-4)GlcNAc
Summary of the method: as §1

[23] = biological target: Man(a1-2)Man(a1-3)[Man(a1-6)]Man(a1-6)[Man(a1-2)Man(a1-3)]Man(b1-4)GlcNAc(b1-4)GlcNAc
Summary of the method: as §1

[24] = biological target: Man(a1-2)Man(a1-6)[Man(a1-3)]Man(a1-6)[Man(a1-2)Man(a1-2)Man(a1-3)]Man
Summary of the method: as §1

[25] = biological target: Man(a1-2)Man(a1-6)[Man(a1-3)]Man(a1-6)[Man(a1-2)Man(a1-2)Man(a1-3)]Man(b1-4)GlcNAc(b1-4)GlcNAc
Summary of the method: as §1

Man(a1-3)[Man(a1-6)]Man = biological target: Man(a1-3)[Man(a1-6)]Man
Summary of the method: as §1

[26] = biological target: Man(a1-3)[Man(a1-6)]Man(a1-6)[Man(a1-2)Man(a1-3)]Man(b1-4)GlcNAc(b1-4)GlcNAc
Summary of the method: as §1

[27] = biological target: Man(a1-3)[Man(a1-6)]Man(a1-6)[Man(a1-3)]Man
Summary of the method: as §1

[28] = biological target: Man(a1-3)[Man(a1-6)]Man(a1-6)[Man(a1-3)]Man(b1-4)GlcNAc(b1-4)GlcNAc
Summary of the method: as §1

[29] = biological target: Man(a1-3)[Man(a1-6)]Man(b1-4)GlcNAc(b1-4)GlcNAc
Summary of the method: as §1

[30] = biological target: Man(a1-3)[Man(a1-6)]Man(b1-4)GlcNAc(b1-4)[Fuc(a1-6)]GlcNAc
Summary of the method: as §1

Man(a1-6)Man = biological target: Man(a1-6)Man
Summary of the method: as §1

Man(b1-4)GlcNAc = biological target: Man(b1-4)GlcNAc
Summary of the method: as §1

MurNAc(b1-4)GlcNAc = biological target: MurNAc(b1-4)GlcNAc
Summary of the method: as §1

Neu5Ac(a2-3)Gal = biological target: Neu5Ac(a2-3)Gal
Summary of the method: as §1

B1: Thrombomodulin (Mus musculus) (protein)
chain: ALAKLQPTGSQCVEHECFALFQGPATFLDASQACQRLQGHLMTVRSSVAADVISLLLSQSSMDLGPWIGLQLPQGCDDPVHLGPLRGFQWVTGDNHTSYSRWARPNDQTAPLCGPLCVTVSTATEAAPGEPAWEEKPCETETQGFLCEFYFTASC
glycan array binding signal (z-score) [1]: -0.135
glycan array binding signal (z-score) [2]: -0.07
glycan array binding signal (z-score) [3]: 0.05
glycan array binding signal (z-score) [4]: -0.178
glycan array binding signal (z-score) [5]: -0.037
glycan array binding signal (z-score) [6]: -0.297
glycan array binding signal (z-score) (GlcNAc(b1-3)GalNAc): -0.372
glycan array binding signal (z-score) (GlcNAc(b1-3)Man): 0.17
glycan array binding signal (z-score) [7]: -0.119
glycan array binding signal (z-score) [8]: 0.124
glycan array binding signal (z-score) [9]: -0.252
glycan array binding signal (z-score) [10]: -0.113
glycan array binding signal (z-score) (GlcNAc(b1-4)GlcNAc): -0.026
glycan array binding signal (z-score) [11]: -0.326
glycan array binding signal (z-score) [12]: 0.022
glycan array binding signal (z-score) [13]: -0.096
glycan array binding signal (z-score) [14]: -0.367
glycan array binding signal (z-score) [15]: 0.036
glycan array binding signal (z-score) (GlcNAc(b1-6)GalNAc): -0.213
glycan array binding signal (z-score) [16]: 0.02
glycan array binding signal (z-score) (Kdn(a2-3)Gal(b1-3)GalNAc): -0.027
glycan array binding signal (z-score) (Kdn(a2-3)Gal(b1-3)GlcNAc): -0.121
glycan array binding signal (z-score) (Kdn(a2-3)Gal(b1-4)Glc): -0.413
glycan array binding signal (z-score) (Kdn(a2-3)Gal(b1-4)GlcNAc): 0.049
glycan array binding signal (z-score) [17]: -0.307
glycan array binding signal (z-score) (Kdn(a2-6)Gal(b1-4)GlcNAc): -0.069
glycan array binding signal (z-score) [18]: 0.005
glycan array binding signal (z-score) [19]: -0.278
glycan array binding signal (z-score) (Man(a1-2)Man(a1-3)Man): -0.114
glycan array binding signal (z-score) [20]: -0.284
glycan array binding signal (z-score) [21]: -0.295
glycan array binding signal (z-score) [22]: -0.148
glycan array binding signal (z-score) [23]: -0.462
glycan array binding signal (z-score) [24]: -0.326
glycan array binding signal (z-score) [25]: -0.299
glycan array binding signal (z-score) (Man(a1-3)[Man(a1-6)]Man): 0.154
glycan array binding signal (z-score) [26]: -0.141
glycan array binding signal (z-score) [27]: -0.178
glycan array binding signal (z-score) [28]: -0.262
glycan array binding signal (z-score) [29]: -0.349
glycan array binding signal (z-score) [30]: 0.066
glycan array binding signal (z-score) (Man(a1-6)Man): 0.052
glycan array binding signal (z-score) (Man(b1-4)GlcNAc): -0.015
glycan array binding signal (z-score) (MurNAc(b1-4)GlcNAc): -0.27
glycan array binding signal (z-score) (Neu5Ac(a2-3)Gal): -0.273

Reference: the supplement of paper PMC8728848
